The values that follow come from PubChem BioAssay AID1347073 (National Center for Advancing Translational Sciences (NCATS), 2019).

The whole screen tested about 45,000 compounds, of which about 200 (0.44%) were called active. Inconclusive results (about 7%) are left out. The call rests on the fitted dose curve; in most records, active means well fitted activation curve with a large enough effect; inconclusive means small, poorly fitted or top-dose-only effect; inactive means no such curve, though single readings can be large or run the other way. The list shows a part of the results.

This assay in a line: qHTS of TDP-43 Inhibitors: NCGC Sytravon Library Screen. Further: 0% is about no effect; nearly all actives have a fitted effect of over 55% in size. As to conditions: yeast TDP-43 toxicity rescue, BacTiter-Glo growth, 24 h; series mostly up to 46.1 µM; growth rescue (activation): at the top concentration. Summed up: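 TDP-43-expressing yeast, pregrown in raffinose, seeded at OD600 0.02 in galactose medium with compound for 24 hr at 30 deg C. Growth read by BacTiter-Glo luminescence, so rescue of toxicity appears as activation.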
In general terms: Quantitative high-throughput screening tests each substance at several concentrations.
For the compound `O=C(COC(=O)CCc1c[nH]c2ccccc12)Nc1ccccc1`, the “growth rescue (activation)” value was inactive: -3.27%.
To `COc1nc(Oc2ccc(=O)n(C)n2)nc(N(C)C)n1` belongs inactive: -0.294%.
With `CC(C)C(C(=O)NCc1ccccc1)N(CC1CCCO1)C(=O)CNS(=O)(=O)c1ccccc1` (configuration not stated) the figure was inactive: 3.49%; with `CC(Sc1nnc(C2CC2)n1C1CC1)C(=O)Nc1ccccc1C#N` (configuration not stated), inactive: 33.1%; with `CC(=O)NC(=S)Nc1ccc(NC(=O)c2cccs2)cc1`, inactive: -20.7%.
Take `OC(CNCc1ccccc1F)COc1cccc2ccccc12` (configuration not stated): the “growth rescue (activation)” value is inactive: 21.4%.
On to `Cc1ccc2c(c1)C(c1ccccc1)N(C(=O)CC(C)C)CC(=O)N2` (configuration not stated), for which the “growth rescue (activation)” value was inactive: -16.5%.
With `O=C(C1CCCO1)N1CCN(C(=S)Nc2ccc(F)cc2)CC1` (configuration not stated) the figure was inactive: 8.91%; with `CC(=O)NC(Cc1ccc(F)cc1)C(=O)NC1CCN(C(=O)Nc2ccccc2C)CC1` (configuration not stated), inactive: -2.44%; with `O=C(COc1ccc(S(=O)(=O)N2CCOCC2)cc1Cl)NCCCn1ccnc1`, inactive: -11.4%.
With `O=C(NNC(=O)C1CC2CCC1C2)c1ccccc1` (configuration not stated) the figure was inactive: 6.13%.
With `CN(CC(=O)Nc1cccc(S(=O)(=O)N(C)C)c1)Cc1ccccc1` the figure was inactive: 0.205%; with `CCOc1ccc(NC(=O)CCC(=O)NNC(=O)c2cccc([N+](=O)[O-])c2)cc1`, inactive: 9.21%; with `S=c1[nH]nc(-c2ccco2)n1/N=C/c1cccs1`, inactive: 18.9%.
In the case of `Cc1cc(C(=O)CSc2nncn2C)c(C)n1-c1ccccc1`, the “growth rescue (activation)” value was inactive: -14.8%.
With `CC(=O)Nc1ccc(NC(=O)COC(=O)Cc2c[nH]c3ccccc23)cc1` the figure was inactive: 8.12%; with `COC(=O)c1ccc(C(=O)OC)c(NC(=O)CS(=O)(=O)Cc2ccccc2)c1`, inactive: 9.45%.
With `COc1ccc(NC(=O)c2ccco2)cc1NC(=O)c1c(OC)cccc1OC` the figure was inactive: 1.51%.
As for `CCN(CC)S(=O)(=O)c1ccc(OCC(=O)NCc2ccco2)cc1`, the “growth rescue (activation)” value is inactive: 21.9%.
To `CC(C)CCn1c(=O)c2ccccc2n2c(CN3CCOCC3)nnc12` belongs inactive: -8.27%.
To `O=C(O)c1ccc(Cl)cc1Nc1nc2cc(Cl)ccc2o1` belongs inactive: 0.946%.
With `COc1ccc(-n2c(=S)[nH]c3cc(C(=O)O)ccc3c2=O)cc1` the figure was inactive: -7.99%.
Regarding `COc1ccc(NC(=O)C2Cc3c(-c4ccco4)ccnc3O2)cc1OC` (configuration not stated), the “growth rescue (activation)” value is inactive: 10.7%.
With `O=c1c(Cl)c(N2CCOCC2)cnn1-c1ncc(C(F)(F)F)cc1Cl` the figure was inactive: -8.92%.
Take `Cc1cccc(C)c1NC(=O)N1CC=C(n2c(=O)[nH]c3ccccc32)CC1`: the “growth rescue (activation)” value is inactive: -5.96%.
To `Cn1cccc1-c1cc(C(=O)N/N=C/C=C/c2ccccc2)[nH]n1` belongs inactive: 17.5%; to `COc1ccccc1CNC(=O)C1CCN(c2nnc(C)c3c(C)n(-c4ccccc4)nc23)CC1`, inactive: 4.14%.
To `COc1ccc(Cl)cc1NC(=O)C(C)N(C)Cc1ccc(C(F)(F)F)cc1` (configuration not stated) belongs inactive: 1.37%; to `CC1CCc2nc(NC(=O)CN3CCN(c4ccccc4)CC3)sc2C1` (configuration not stated), inactive: -24.2%.
With `Cc1cc(C)c(NC(=O)C2CCC(=O)N2)c(C)c1` (configuration not stated) the figure was inactive: 8.04%; with `COc1ccccc1OCC(=O)Nc1ccc(S(=O)(=O)N2CCCC2)cc1`, inactive: 23.6%; with `Cc1cccc(NC(=O)N2CCC(NC(=O)C3CCCCC3)CC2)c1`, inactive: 10.5%.
For `Cc1cccc(Cc2nnc(CCC(=O)NCc3cn4ccccc4n3)o2)c1`, the “growth rescue (activation)” value is inactive: 0.578%.
With `C[C@@H](C(=O)Nc1nc2ccc(F)cc2s1)N1C(=O)C2CC=CCC2C1=O` (some centres not stated) the figure was inactive: 14.3%.
With `CCN(CC)CCCNC(=O)Cn1cnc2sc(C)c(S(=O)(=O)N3CCC(C)CC3)c2c1=O` the figure was inactive: -15.2%; with `COCCNCC(=O)Nc1ccc(OC(F)(F)F)cc1`, inactive: 3.71%.
Take `CCCS(=O)(=O)N1CCCC(C(=O)N2CCCCC2)C1` (configuration not stated): the “growth rescue (activation)” value is inactive: 12.6%.
With `CCN(CC)S(=O)(=O)c1ccc(C(=O)Nc2cc(C)on2)cc1` the figure was inactive: 11.9%; with `CC(=O)c1cccc(CN2CCN(C3CCCCC3)C(CCO)C2)c1` (configuration not stated), inactive: 24%; with `CSc1cccc(NC(=S)N(CCC(C)C)C2CCN(C(C)=O)CC2)c1`, inactive: 6.15%.
To `COc1cc(OC)cc(-c2noc([C@@H]3O[C@H](CO)[C@@H](O)[C@H]3O)n2)c1` belongs inactive: 3.94%; to `O=C(NCCc1nc2ccccc2[nH]1)/C(=C/c1ccc2c(c1)OCO2)NC(=O)c1ccccc1`, inactive: 15.4%; to `O=C(Cn1cc(C(=O)c2cccs2)c2ccccc21)Nc1ccc(Br)cc1`, inactive: -3.62%.
To `C/C=C(\C)c1nnc(NC(=O)c2ccco2)s1` belongs inactive: 30.4%; to `Cc1nc2c(OCc3ccc(C(F)(F)F)cc3)cccn2c1N(C)C(=O)CCC1CCCC1`, inactive: -51.2%.
Consider `Cc1ccc(SCC(=O)Nc2ccc3c(c2)C(=O)NC3=O)cc1`, for which the “growth rescue (activation)” value was inactive: 1.74%.
To `Cc1noc(C)c1S(=O)(=O)Nc1ccc(C(=O)N2CCN(c3ccc(Cl)cc3)CC2)cc1` belongs inactive: 12.8%.
With `CCCCN(C=O)c1c(CC)nc2ccc(C(=O)N3CCN(S(=O)(=O)CC)CC3)cn12`, the “growth rescue (activation)” value was inactive: 0.0844%.
`Cc1cc(C([O-])=C(C(=S)Nc2ccccc2)[n+]2ccccc2)c(C)n1-c1ccccc1`: the “growth rescue (activation)” value is inactive: -6.21%.
With `CC/C(=N\NC(N)=O)c1ccc(OC(F)F)cc1` the figure was inactive: -7.05%.
With `CCC(=O)c1ccc(OCC(=O)NCc2ccccc2CN2CCCC2)cc1` the figure was inactive: 17.1%.
To `C=CCOc1ccc(CN(C)CC(O)COc2ccc(CCC(C)=O)cc2)cc1` (configuration not stated) belongs inactive: -3.07%.
